Source: publication PMC4537477 (Protein & Cell, 2015)

Target: full-length human histone H4 (human, UniProt P62805)
Assay: crystal structure; 3.5-Å structure of the MCM2-ASF1-H3-H4 quaternary complex, solved by molecular replacement; six tetramers in one asymmetric unit
Settings: both partners purified

- binding result: binds
B1: N-terminal domain of human MCM2 ([…]) (domain or fragment)
chain: not shown
